Measurements as given in article PMC4336329 (PLoS ONE, 2015).
The whole screen tested about 310,000 compounds, of which about 2,200 (0.71%) showed an effect of 50% or more. The effect is printed as a negative number. Some of the results follow.

molecular target: human ether-à-go-go-related gene (hERG) potassium channel (human, UniProt Q12809); assay: primary screen, population patch clamp on CHO cells stably expressing hERG
Sequence (Q12809 whole entry, looked up): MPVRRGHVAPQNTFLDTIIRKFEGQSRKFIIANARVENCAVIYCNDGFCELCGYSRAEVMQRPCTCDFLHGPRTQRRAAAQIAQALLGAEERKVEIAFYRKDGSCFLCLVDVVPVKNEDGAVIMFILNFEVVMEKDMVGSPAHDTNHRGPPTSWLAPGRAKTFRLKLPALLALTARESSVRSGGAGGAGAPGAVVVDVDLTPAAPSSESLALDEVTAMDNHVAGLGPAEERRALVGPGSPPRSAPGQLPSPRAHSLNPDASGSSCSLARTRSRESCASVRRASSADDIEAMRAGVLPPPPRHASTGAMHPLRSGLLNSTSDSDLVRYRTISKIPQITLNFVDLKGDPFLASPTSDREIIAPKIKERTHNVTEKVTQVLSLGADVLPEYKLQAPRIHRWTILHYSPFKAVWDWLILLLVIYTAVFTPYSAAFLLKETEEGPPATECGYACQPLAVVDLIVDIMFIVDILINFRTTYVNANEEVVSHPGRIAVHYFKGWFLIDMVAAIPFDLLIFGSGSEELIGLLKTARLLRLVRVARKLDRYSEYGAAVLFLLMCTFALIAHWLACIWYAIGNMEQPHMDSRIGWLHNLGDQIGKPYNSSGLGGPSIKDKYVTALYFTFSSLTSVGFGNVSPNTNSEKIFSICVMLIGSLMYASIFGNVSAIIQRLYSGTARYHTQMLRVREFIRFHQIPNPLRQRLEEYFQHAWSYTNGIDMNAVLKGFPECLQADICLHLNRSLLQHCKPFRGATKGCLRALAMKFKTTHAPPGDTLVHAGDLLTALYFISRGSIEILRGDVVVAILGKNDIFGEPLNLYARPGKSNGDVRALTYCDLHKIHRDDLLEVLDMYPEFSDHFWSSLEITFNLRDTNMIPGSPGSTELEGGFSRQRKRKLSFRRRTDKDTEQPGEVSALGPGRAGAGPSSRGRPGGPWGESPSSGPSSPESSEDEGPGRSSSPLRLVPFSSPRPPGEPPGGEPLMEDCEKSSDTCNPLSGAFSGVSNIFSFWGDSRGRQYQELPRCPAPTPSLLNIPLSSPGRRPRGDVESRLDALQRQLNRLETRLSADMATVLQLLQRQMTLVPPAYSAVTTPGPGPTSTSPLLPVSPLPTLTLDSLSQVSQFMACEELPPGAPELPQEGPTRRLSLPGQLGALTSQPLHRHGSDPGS

Row | Compound | hERG current change (%, negative = inhibition) at 1uM
1 | Cc1cc(C[n+]2ccccc2)c2nsnc2c1.[Cl-] | 12.6%
2 | CSc1nc(C)cc(C)c1C#N | 2.01%
3 | CCC(=O)Nc1cccc(NC(=O)c2ccc3c(c2)OCO3)c1 | 12.2%
4 | CCc1nc2sc3c(c2c(=O)n1N)CC(C)(C)OC3 | 8.43%
5 | Cn1nc(OCCOc2ccccc2)ccc1=O | 2.13%
6 | COc1ccc(-c2cc(C(=O)Nc3cccc(S(=O)(=O)NCc4ccco4)c3)c3ccccc3n2)cc1OC | 12.4%
7 | O=C(CCNS(=O)(=O)c1ccccc1)NNC(=O)COc1ccc(Cl)cc1 | 6.88%
8 | Cc1ccc(SCCC(=O)NCCSCc2ccco2)cc1 | 13.5%
9 | CCNC(=O)C1CCCN1S(=O)(=O)c1ccc(OC)cc1 (stereo not drawn) | 15.9%
10 | C#CCOCCOCCOCCNc1nc(N2CCN(C(=O)CCCCCCCCCCNC(=O)[C@H]([C@@H](C)CC)n3cc(CCCCCN)nn3)CC2)nc(N2CCN(C(=O)CCCCCCCCCCNC(=O)[C@H](CO)n3cc(CCCCCN)nn3)CC2)n1 | 7.07%
11 | CSC1=NCCN1S(=O)(=O)c1ccc(C)cc1 | -1.21%
12 | COCC1CCCN(Cc2cn(Cc3ccccc3)nc2-c2cc3ccccc3o2)C1 (stereo not drawn) | -0.957%
13 | Cc1sc2ncnc(NCCCn3ccnc3)c2c1C | -16.7%
14 | CCC(C)[C@H](NC(=O)NCCCc1ccccc1)C(=O)OC (stereo partly drawn) | -8.66%
15 | C[N+]1(C2CCC3CCCC2C3O)CCCCC1.[I-] (stereo not drawn) | 9.43%
16 | CC(C)[C@H](NC(=O)NCc1ccc(Cl)cc1)C(=O)O | -3.22%
17 | Cc1cc(OCCCCN2C(=O)NC(C)(C)C2=O)cc(C)c1Cl | 3.1%
18 | COC(=O)C1=CO[C@@H](C)[C@@H]2CN3CC[C@]4(C(=O)Nc5ccccc54)[C@@H]3C[C@H]12 | 16%
19 | CCN(C(=O)c1cn(C)c(=O)c2cc(OC)c(OC)cc12)c1cc(C)ccc1C | 8.54%

Row | Compound | hERG current change (%, negative = inhibition) at 1uM
20 | CCNc1nc(N2CCCCC2)nc(-n2nnc(C(=O)OCC)c2C)n1 | -3.97%
21 | CCOC(=O)c1sc2ncn(/N=C/c3cccnc3)c(=O)c2c1C | 4.29%
22 | CC(C)(C)C1c2[nH]c3ccccc3c2CCN1CCCn1cccn1 (stereo not drawn) | 4.68%
23 | CC(=O)c1c(C)oc2c1cc(NS(=O)(=O)c1ccc(C(=O)O)cc1)c1ccccc12 | 12.8%
24 | CN(C)CCOc1cccc(Br)c1.O=C(O)C(=O)O | 8.19%
25 | CN(C)c1ccc(/C=N/NC(=O)c2cccc(N3CCCC3=O)c2)cc1 | 9.17%
26 | NC(=O)Cc1ncc(C(F)(F)F)cc1Cl | 8.42%
27 | CN(CC(=O)Nc1ccc(Cl)cc1)C(=O)CCC1CCCC1 | 5.68%
28 | CCn1c(SCC(=O)c2ccc(Cl)cc2)nnc1C(C)C | 8.32%
29 | Cc1nn(C)c(C(=O)Nc2ccc(Cn3cccn3)cc2)c1[N+](=O)[O-] | 0.851%
30 | O=C(Oc1cc(=O)oc2c1c(=O)n1c3c(cccc23)CC1)c1ccccc1 | 10.1%
31 | O=c1cc(N2CCC(Cc3ccccc3)CC2)[nH]c(=O)n1C1CCCCC1 | 12.8%
32 | Cc1ccc(CN2CCN(Cc3ccc4ncccc4c3)CC2CCO)cc1 (stereo not drawn) | -20.5%
33 | O=C(Nc1cccc(Cl)c1)C1C2C=CC3(O2)C1C(=O)N(CCCN1CCCCC1)C3C(=O)NC1CCCCC1 (stereo not drawn) | 8.83%
34 | O=C(O)c1cc(-c2ccc(Cl)cc2)n(-c2ccc(Cl)cc2)n1 | 20.1%
35 | CC(=O)N(CCC(Cc1ccccc1)c1ccc2c(c1)OCO2)Cc1ccccc1F (stereo not drawn) | 12.8%
36 | Cc1ccc(C2(COC(=O)C(C)C)CO2)c(OC(=O)C(C)C)c1 (stereo not drawn) | 5.64%
37 | CCn1cc(CNC(=S)Nc2cccc3ccccc23)cn1 | 9.87%
38 | CC(C)c1ccccc1NC(=O)Cn1c(/C=C/c2ccccc2)nc2ccccc21 | 20.2%

Row | Compound | hERG current change (%, negative = inhibition) at 1uM
39 | O=C(NC1CCCC1)c1csc2c1CCCC2 | 3.44%
40 | Cc1ccc(-c2cc(C(=O)O)n[nH]2)s1 | 10.6%
41 | Cc1cc(OCCOCCN(C)C)ccc1Cl.O=C(O)C(=O)O | 19.4%
42 | Cc1ccc(-n2cc(C(=O)c3ccc4ccccc4c3O)cn2)cc1 | 8.89%
43 | O=C(CC1C(=O)CCCC1=O)c1ccccc1 | 1.75%
44 | COc1cccc2c1OCC(C(=O)Nc1nccs1)=C2 | 1.63%
45 | O=C(NCCc1ccc(Cl)cc1)C1CCC(CNc2nc(=S)[nH]c3ccccc23)CC1 (stereo not drawn) | -1.29%
46 | CC(C)(C)NC(=O)c1ccccc1NC(=O)C1CC(=O)N(C2CCCCC2)C1 (stereo not drawn) | 5.02%
47 | O=[N+]([O-])c1ccc(CN2CCN(c3nc4ccccc4s3)CC2)cc1 | 11.8%
48 | N/C(Cc1cccc2ccccc12)=N\OC(=O)c1ccc2c(c1)OCO2 | 7.26%
49 | O=C(c1ccco1)N1CCN(CCCCN2C(=O)c3ccccc3C2=O)CC1 | -18.8%
50 | COc1ccc(-n2nc(C(=O)NCC(=O)N3CC(C)CC(C)C3)c3ccccc3c2=O)cc1 (stereo not drawn) | 16%
51 | C/C(=N\Nc1nc2ccccc2[nH]1)c1ccc([N+](=O)[O-])cc1 | 14.9%
52 | CCOC(=O)N1CCN(C(=O)CS(=O)(=O)c2cn(Cc3ccc(Cl)cc3)c3ccccc23)CC1 | 8.44%
53 | COc1cc(C(=O)NCC2CCCO2)ccc1OCc1ccc(Cl)cc1 (stereo not drawn) | 8.94%
54 | Cc1sc2nc(C(C)(C)C)oc(=O)c2c1C | 3.6%
55 | Cc1cc(-n2c(C)cc(C(=O)CN3C(=O)NC4(CCCCCC4)C3=O)c2C)no1 | 5.71%
56 | Cc1cccc2c1cnn2C(=O)Nc1cc(F)ccc1F | 14.5%
57 | CCOC(=O)NCN1C(=O)C2C3C=CC(C3)C2C1=O (stereo not drawn) | 7.02%
